# Results: the supplement of paper PMC12217912
# The other results are listed elsewhere or left out. Sequences were assembled here from the parent chain. Inactive controls read about 0.05.
# B1: TEV protease; numbered along this chain (parent)
# chain: MGESLFKGPRDYNPISSSICHLTNESDGHTTSLYGIGFGPFIITNKHLFRRNNGTLVVQSLHGVFKVKDTTTLQQHLVDGRDMIIIRMPKDFPPFPQKLKFREPQREERICLVTTNFQTKSMSSMVSDTSCTFPSGDGIFWKHWIQTKDGQCGSPLVSTRDGFIVGIHSASNFTNTNNYFTSVPKNFMELLTNQEAQQWVSGWRLNADSVLWGGHKVFMVKPEEPFQPVKEATQL
# Variants of: B1
# Assay: raw area under fraction-flipped curve 0-4 h after induction (AUC4h, not background-subtracted), DNA-recorder readout of cleavage of the substrate (dimensionless); higher = more cleavage of the substrate by the protease variant
# Conditions: temperature: 34 °C; time window: 0-4 h after rhamnose induction
# Description: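 In vivo DNA recorder in E. coli TOP10(DE3) ΔrhaA at 34 °C. Each TEVp single-site mutant (parent TEVp 0) is paired with a single-site variant of the 7-mer TEVs (canonical ENLYFQ|S). The substrate sits between flexible linkers in a Bxb1-sfGFP-TEVs-SsrA fusion, so cleavage stabilises Bxb1 and speeds flipping of a recombination array, read by NGS. The value is the raw area under the fraction-flipped curve over 0-4 h after rhamnose induction (AUC4h), with ≥20 reads per time point. It is not background-subtracted; inactive controls average about 0.047.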
# 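Also: Bxb1 expression induced with 0.2% (w/v) L-rhamnose at OD600 near 0.5, cultures sampled hourly, flipped fraction per protease–substrate barcode pair counted by paired-end Illumina sequencing.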
Variant,area with substrate ECLYFQS,area with substrate EHLYFQS,area with substrate ERLYFQS,area with substrate ESLYFQS,area with substrate EVLYFQS,area with substrate EYLYFQS,area with substrate EDLYFQS,area with substrate EGLYFQS,area with substrate EILYFQS,area with substrate EKLYFQS
MGESLFKGPRDYNPISSSICHLTNESDGHTTSLYGIGFGPFIITNKHLFRRNNGTLVVQSLHGVFKVKDTTTLQQHLVDGRDMIIIRMPKDFPPFPQKLKFREPQREERICLVTTNFQTKSMSSMVSDTSCTFPSGDGIFWKHWIQSKDGQCGSPLVSTRDGFIVGIHSASNFTNTNNYFTSVPKNFMELLTNQEAQQWVSGWRLNADSVLWGGHKVFMVKPEEPFQPVKEATQL [T147S],0.091,0.112,0.0685,0.0768,0.0541,0.0843,,,,
MGESLFKGPRDYNPISSSICHLTNESDGHTTSLYGIGFGPFIITNKHLFRRNNGTLVVQSLHGVFQVKDTTTLQQHLVDGRDMIIIRMPKDFPPFPQKLKFREPQREERICLVTTNFQTKSMSSMVSDTSCTFPSGDGIFWKHWIQTKDGQCGSPLVSTRDGFIVGIHSASNFTNTNNYFTSVPKNFMELLTNQEAQQWVSGWRLNADSVLWGGHKVFMVKPEEPFQPVKEATQL [K66Q],0.0757,,,,,,0.15,0.0777,0.111,0.0906
MYESLFKGPRDYNPISSSICHLTNESDGHTTSLYGIGFGPFIITNKHLFRRNNGTLVVQSLHGVFKVKDTTTLQQHLVDGRDMIIIRMPKDFPPFPQKLKFREPQREERICLVTTNFQTKSMSSMVSDTSCTFPSGDGIFWKHWIQTKDGQCGSPLVSTRDGFIVGIHSASNFTNTNNYFTSVPKNFMELLTNQEAQQWVSGWRLNADSVLWGGHKVFMVKPEEPFQPVKEATQL [G2Y],0.145,0.157,,0.166,0.134,0.17,0.166,0.136,,
MGESLFKGPRDYNPISSSICHLTNESDGHTTSLYGIGFGPFIITNKHLFRRNNGTLVVQSLHGVFKVKDTTTLQQHLVDGRVMIIIRMPKDFPPFPQKLKFREPQREERICLVTTNFQTKSMSSMVSDTSCTFPSGDGIFWKHWIQTKDGQCGSPLVSTRDGFIVGIHSASNFTNTNNYFTSVPKNFMELLTNQEAQQWVSGWRLNADSVLWGGHKVFMVKPEEPFQPVKEATQL [D82V],0.0417,,0.0576,0.0497,,0.0485,,,,0.0489
MGESLFKGPRDYNPISSSICHLTNESDGHTTSLYGIGFGPFIITNKHLFRRNNGTLVVQSLHGVFKVKDTTTLQQHLVDGRDMIIIRMPKDFPPFPQKLKFREPQREERICLVTTNFQTKSMSSMVSDTSCTFPSGDGIFWKHWIQTKDGQCGSPLVSTRDGFIVGIHSASNFTNTNNYFTSVPKNFMELLTNQEAQQWVSGWRLNADSVLWGGFKVFMVKPEEPFQPVKEATQL [H215F],0.0833,0.0958,,0.086,0.0872,0.0786,0.0965,,,0.0668
MGESLFKGPRDYNPISSSICHLTNESDGHTTSLYGIGFGPFIITNKHLFRRNNGTLVVQSLHGVFKVKDTTTLQQHLVDGRDMIIIRMPKDFPPFPQKLKFREPQREERICLVTTNFQTKSMSSMVSDTSCTFPSGDGIFWKHWIQTKDGQCGSPLVSTRDGFILGIHSASNFTNTNNYFTSVPKNFMELLTNQEAQQWVSGWRLNADSVLWGGHKVFMVKPEEPFQPVKEATQL [V165L],0.103,,0.119,,,,,,,
MGESLFKGPRDYNPISSSICHLTNESDGHTTSLYGIGFGPFIITNKHLFRRNNGTLQVQSLHGVFKVKDTTTLQQHLVDGRDMIIIRMPKDFPPFPQKLKFREPQREERICLVTTNFQTKSMSSMVSDTSCTFPSGDGIFWKHWIQTKDGQCGSPLVSTRDGFIVGIHSASNFTNTNNYFTSVPKNFMELLTNQEAQQWVSGWRLNADSVLWGGHKVFMVKPEEPFQPVKEATQL [V57Q],0.0781,,,0.114,0.102,,,,,
MGESLFKGPRDYNPISSSICHLTNESDGHTTSLYGIGFGPFIITNKHLFRRNNGTLVVQSLHGVFKVKDTTTLQQHLVDGRDMIIIRMPKDFPPFPQKLKFREPQREERICLVTTNFQTKSMSSMVSDTSCTFPSGDGIFWKHWIQTKDGQCGSPLVSTRDGFIVGIHSASNFTNTNNYFTSVPKNFMELLTNQEAQQWVCGWRLNADSVLWGGHKVFMVKPEEPFQPVKEATQL [S201C],0.119,,,0.131,0.12,,,,0.112,
MGESLFKGPRDYNPISSSICHLTNESDGHTTSLYGIGFGPFIITNKHLFRRNNGTLVVQSLHGVFKVKDTTTLQQHLVDGRDMIIIRMPKDFPPFPQKLKFREPQREERICLVTTNFQTKSMSSMVSDTSCTFPSGDGIFWKHWIQTKDGQCGSPLVSTRDGFIVGIHSASNFTNTNNYFTFVPKNFMELLTNQEAQQWVSGWRLNADSVLWGGHKVFMVKPEEPFQPVKEATQL [S182F],0.0471,,0.0606,0.0667,,,,0.0416,0.0716,0.0695
MGESLFKGPRDYNPISSSICHLTNESDGHTTSLYGIGFGPFIITNKHLFRRNNGTLVVQSLHGVFKVKDTTTLQQHLVDGRDMIIIRMPKDFPPFPYKLKFREPQREERICLVTTNFQTKSMSSMVSDTSCTFPSGDGIFWKHWIQTKDGQCGSPLVSTRDGFIVGIHSASNFTNTNNYFTSVPKNFMELLTNQEAQQWVSGWRLNADSVLWGGHKVFMVKPEEPFQPVKEATQL [Q97Y],0.0825,,,,,,,,,
MGESLFKGPRDYNPISSSICHLTNESDGHTTSLYGIGFGPFIITNKHLFRRNNGTLVVQSLHGVFKVKDTTTLQQHLVDGRDMIIIRMPKDFPPFPQKLKFREPQREERICLVTTNFQTKSMSSMVSDTSCTFPSGDGIFWKHWNQTKDGQCGSPLVSTRDGFIVGIHSASNFTNTNNYFTSVPKNFMELLTNQEAQQWVSGWRLNADSVLWGGHKVFMVKPEEPFQPVKEATQL [I145N],0.109,,,,,,0.132,,0.126,

# Same assay, conditions: temperature: 34 °C; time window: 0-4 h after rhamnose induction
Variant,area with substrate EMLYFQS,area with substrate ELLYFQS,area with substrate EQLYFQS,area with substrate EELYFQS,area with substrate EPLYFQS,area with substrate ETLYFQS,area with substrate EWLYFQS
MGESLFKGPRDYNPISSSICHLTNESDGHTTSLYGIGFGPFIITNKHLFRRNNGTLVVQSLHGVFQVKDTTTLQQHLVDGRDMIIIRMPKDFPPFPQKLKFREPQREERICLVTTNFQTKSMSSMVSDTSCTFPSGDGIFWKHWIQTKDGQCGSPLVSTRDGFIVGIHSASNFTNTNNYFTSVPKNFMELLTNQEAQQWVSGWRLNADSVLWGGHKVFMVKPEEPFQPVKEATQL [K66Q],0.133,,,,,,
MYESLFKGPRDYNPISSSICHLTNESDGHTTSLYGIGFGPFIITNKHLFRRNNGTLVVQSLHGVFKVKDTTTLQQHLVDGRDMIIIRMPKDFPPFPQKLKFREPQREERICLVTTNFQTKSMSSMVSDTSCTFPSGDGIFWKHWIQTKDGQCGSPLVSTRDGFIVGIHSASNFTNTNNYFTSVPKNFMELLTNQEAQQWVSGWRLNADSVLWGGHKVFMVKPEEPFQPVKEATQL [G2Y],0.213,0.112,0.185,,,,
MGESLFKGPRDYNPISSSICHLTNESDGHTTSLYGIGFGPFIITNKHLFRRNNGTLVVQSLHGVFKVKDTTTLQQHLVDGRVMIIIRMPKDFPPFPQKLKFREPQREERICLVTTNFQTKSMSSMVSDTSCTFPSGDGIFWKHWIQTKDGQCGSPLVSTRDGFIVGIHSASNFTNTNNYFTSVPKNFMELLTNQEAQQWVSGWRLNADSVLWGGHKVFMVKPEEPFQPVKEATQL [D82V],0.0746,,,0.0471,0.0458,,
MGESLFKGPRDYNPISSSICHLTNESDGHTTSLYGIGFGPFIITNKHLFRRNNGTLVVQSLHGVFKVKDTTTLQQHLVDGRDMIIIRMPKDFPPFPQKLKFREPQREERICLVTTNFQTKSMSSMVSDTSCTFPSGDGIFWKHWIQTKDGQCGSPLVSTRDGFIVGIHSASNFTNTNNYFTSVPKNFMELLTNQEAQQWVSGWRLNADSVLWGGFKVFMVKPEEPFQPVKEATQL [H215F],,,0.109,,0.0904,,
MGESLFKGPRDYNPISSSICHLTNESDGHTTSLYGIGFGPFIITNKHLFRRNNGTLVVQSLHGVFKVKDTTTLQQHLVDGRDMIIIRMPKDFPPFPQKLKFREPQREERICLVTTNFQTKSMSSMVSDTSCTFPSGDGIFWKHWIQTKDGQCGSPLVSTRDGFILGIHSASNFTNTNNYFTSVPKNFMELLTNQEAQQWVSGWRLNADSVLWGGHKVFMVKPEEPFQPVKEATQL [V165L],,,,0.109,,,
MGESLFKGPRDYNPISSSICHLTNESDGHTTSLYGIGFGPFIITNKHLFRRNNGTLVVQSLHGVFKVKDTTTLQQHLVDGRDMIIIRMPKDFPPFPQKLKFREPQREERICLVTTNFQTKSMSSMVSDTSCTFPSGDGIFWKHWIQTKDGQCGSPLVSTRDGFIVGIHSASNFTNTNNYFTSVPKNFMELLTNQEAQQWVCGWRLNADSVLWGGHKVFMVKPEEPFQPVKEATQL [S201C],,,,0.105,0.0508,0.107,0.0929
MGESLFKGPRDYNPISSSICHLTNESDGHTTSLYGIGFGPFIITNKHLFRRNNGTLVVQSLHGVFKVKDTTTLQQHLVDGRDMIIIRMPKDFPPFPQKLKFREPQREERICLVTTNFQTKSMSSMVSDTSCTFPSGDGIFWKHWIQTKDGQCGSPLVSTRDGFIVGIHSASNFTNTNNYFTFVPKNFMELLTNQEAQQWVSGWRLNADSVLWGGHKVFMVKPEEPFQPVKEATQL [S182F],,,,0.0529,,,0.0537
MGESLFKGPRDYNPISSSICHLTNESDGHTTSLYGIGFGPFIITNKHLFRRNNGTLVVQSLHGVFKVKDTTTLQQHLVDGRDMIIIRMPKDFPPFPQKLKFREPQREERICLVTTNFQTKSMSSMVSDTSCTFPSGDGIFWKHWNQTKDGQCGSPLVSTRDGFIVGIHSASNFTNTNNYFTSVPKNFMELLTNQEAQQWVSGWRLNADSVLWGGHKVFMVKPEEPFQPVKEATQL [I145N],0.132,0.0891,0.111,,,0.133,
